Data on 15 molecules can be found in patent US20240247076A1 (SUZHOU ALPHAMAB, published 2024).

Residue numbers refer to the chain shown, from its start. Where only a bound is given, the exact number is not on record here.

T1: mApple-chis (mouse, UniProt Q91Y47 19-389)
T1 construct: range 1-389; also called mapple-chis-biotin
T1 sequence (looked up): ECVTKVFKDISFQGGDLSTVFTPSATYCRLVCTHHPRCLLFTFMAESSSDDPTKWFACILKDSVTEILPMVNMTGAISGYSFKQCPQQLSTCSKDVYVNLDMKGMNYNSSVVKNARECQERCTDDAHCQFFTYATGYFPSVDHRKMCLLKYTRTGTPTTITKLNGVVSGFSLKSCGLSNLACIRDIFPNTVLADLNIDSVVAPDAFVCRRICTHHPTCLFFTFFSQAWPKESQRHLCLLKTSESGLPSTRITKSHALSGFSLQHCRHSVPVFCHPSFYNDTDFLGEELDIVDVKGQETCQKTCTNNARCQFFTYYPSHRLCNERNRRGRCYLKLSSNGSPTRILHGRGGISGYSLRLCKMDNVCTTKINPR

B1: huFE35huv1-Ld-Fc (Fc fusion)
chain: QVQLVESGGGSVQAGGSLRLSCTASGFTFDDSDMGWYRQAPGNECELVSTISSDGRGFYADSVKGRFTISQDNSKNTVYLQMNSLRAEDTAVYYCAAGWYGSFCSGLGQGTLVTVSS[sequence of human IgG1 Fc omitted]
notes: Humanized VHH fused to human IgG1 Fc; 'Ld' not explained; also called huFE35huvl-Ld-Fc
B2: huFE97huv2-Ld-Fc (Fc fusion)
chain: QVQLVESGGGLVQPGGSLRLSCAASEFTFDDSDMAWYRQAPGNECELVSTITSDGGTYYADSVKGRFTISRDNSKNTLYLQMNSLRAEDTAVYYCAADQWGSAEGDCTSSYPGGYWGQGTLVTVSS[sequence of human IgG1 Fc omitted]
notes: Humanized VHH fused to human IgG1 Fc; 'Ld' not explained
B3: huFE5huv1-Ld-Fc (Fc fusion)
chain: QVQLVESGGGSVQAGGSLRLSCAASGYTYSFNSMGWFRQAPGKEREGVAVIYLGSTHYADSVKGRFTISQDNSKNTVYLQMNSLRAEDTAVYYCAADLLEYDGTWFGSTYNYWGQGTLVTVSS[sequence of human IgG1 Fc omitted]
notes: Humanized VHH fused to human IgG1 Fc; 'Ld' not explained; also called huFE5huvl-Ld-Fc
B4: huFE5huv2-Ld-Fc (Fc fusion)
chain: B3 chain with S11L, A14P, E44G, R45L, A49S, Q70R, V77L
notes: as for B2
B5: huFE13huv2-Ld-Fc (Fc fusion)
chain: QVQLVESGGGLVQPGGSLRLSCAASGYTYSMGAMAWFRQAPGKGLEGVSLIATSSGFISYTDSVKGRFTISRDNSKNTLYLQMNSLRAEDTAVYYCAAGTQFSWSPGSYNYWGQGTLVTVSS[sequence of human IgG1 Fc omitted]
notes: as for B2
B6: huFE148huv2-Ld-Fc (Fc fusion)
chain: QVQLVESGGGLVQPGGSLRLSCAASGYTFNNNFVGWFRQAPGKGLEGVSAIYSLGGSTYYADSVKGRFTISRDNSKNTLYLQMNSLRAEDTAVYYCAAAITWVPPLSHRRYTYWGQGTLVTVSS[sequence of human IgG1 Fc omitted]
notes: as for B2
B7: huFE148huv6-Ld-Fc (Fc fusion)
chain: B6 chain with L11S, P14A, R87K, A88P, A98G
B8: iFE163-Fc (Fc fusion)
chain: QVQLQESGGDSVQAGGSLRLSCIASGFTFDDSDMGWYRQAPGHQCEFVSHITNDGTTYYADSVKGRFTISRDNAKNTVYLQMNSLKPEDAAVYYCAADAWGGGRSTCVNPIGYWGQGTQVTVSS[sequence of human IgG1 Fc omitted]
notes: VHH fused to human IgG1-Fc, made in HEK293; also called IFE163-Ld-Fc
B9: iFE166-Fc (Fc fusion)
chain: QVQLQESGGGSVQAGGSLRLSCVASGFTGCRNIMSWYRQAPGKDREFVSAIDSDGVDYADSVKGRFSISQHNDKKTMYLQMTSLKLEDTAMYYCRRVDFGTTSQCRGNYWGQGTQVTVSS[sequence of human IgG1 Fc omitted]
notes: VHH fused to human IgG1-Fc, made in HEK293
B10: iFE168-Fc (Fc fusion)
chain: QVQLQESGGGSVQAGGSLRLSCAASGYTFSNNFVGWFRQAPGKKREGVATIYTLGSSTYYADSVKGRFTISQDNAKNTLYLEMNSLKPEDTAMYYCAAARGWVSPLDPARFVYWGQGTQVTVSS[sequence of human IgG1 Fc omitted]
notes: as for B9
B11: iFE96-Fc (Fc fusion)
chain: QVQLQESGGGSVQAGGSLRLSCAASGFTASSNFMGWFRQAPGKEREGVAAIYTGGASTFYADSVKGRFTISQDNAKNTVYLEMDTLKPEDTAMYYCAAAPRWIAPLRADRYEYWGQGTQVTVSS[sequence of human IgG1 Fc omitted]
notes: as for B9
B12: iFE15m-Fc (Fc fusion)
chain: QVQLQESGGGLVQPGGSLRLSCAASGFTFSNYDMSWVRQAPGKGLEGVSGINSGGGHPHYADSVKGRFTISRDNAKNTLYLQMNSLKTEDTAVYFCATDEGERYGEDFGYWGQGTQVTVSS[sequence of human IgG1 Fc omitted]
notes: as for B9
B13: iFE29m-Fc (Fc fusion)
chain: QVQLQESGGGLVQPGGSLRLSCVASGLTFSLYDMSWVRQAPGKGLEGVSGISGESGGSTYYADSVKGRFTISRDNAKNTLYLQMNSLKTEDTAVYYCATGDRGTWYREDDWGQGTQVTVSS[sequence of human IgG1 Fc omitted]
notes: as for B9
B14: iFE49-Fc (Fc fusion)
chain: QVQLQESGGDSVQAGGSLRLSCAASGLISTGLISTRHCMSWFRQAPGKEREEVAVIGSDGSTRYGDFAKGRFTISKDTAKNTLYLQMNSLEPEDTAMYYCAAGPLVSTASRRRTRCPEGPRENIYWGQGTQVTVSS[sequence of human IgG1 Fc omitted]
notes: as for B9
B15: iFE17EREG-Fc (Fc fusion)
chain: QVQLQESGGGLVQPGGSLRVSCAASGFTFSLYDMSWVRQAPGKEREGVSGINSDDGSTSYADSVKGRFTISRDNAKNTLYLQMNSLKTEDTAVYYCATGVGARWFREDDWGQGTQVTVSS[sequence of human IgG1 Fc omitted]
notes: as for B9

The target in one test is activated human factor 11 protein (hFXIa) (human, UniProt P03951). As to the kind of experiment: BLI, antibody captured on sensor, antigen in solution. Background: BLI is a label-free optical method that tracks binding on a fibre tip over time.
In general, Kd refers to the equilibrium constant for the complex coming apart. The molecule B1 came in with a Kd of 45.5 nM.

Another test addresses T2, recombinant human factor XI (hFXI) (human, UniProt P03951).
T2 construct: also called hFXI-Chis; hFXI-CHis
The test is described as above.
With B2, the Kd came to 2.51 nM.
Same read-out and setting: then B3, with 0.656 nM; and B4, with 0.612 nM; and B5, with 10.5 nM.
On the same count and under the same terms, with B6 the figure was 4.56 nM; with B7, 2.64 nM.

The next test deals with T1, mApple-chis. As to the kind of experiment: ELISA, Fc fusion on coated antigen.
What is called EC50 is the midpoint of the concentration-response curve. Read a high EC50 as lower potency in that assay. Turning to B8, a half-maximal response (EC50) required 0.0554 µg/mL.
Same read-out and setting: with B9 the figure was 0.0474 µg/mL; with B10, 0.0315 µg/mL.
On the same count and under the same terms, with B11 the figure was 0.0331 µg/mL.

Another test has as its target T3, hApple-chis (human, UniProt P03951 partial chain).
T3 construct: range 1-387; also called happle-chis-biotin
The test can be described thus: ELISA, Fc fusion on coated antigen.
B12 displayed an EC50 of 0.0422 µg/mL.
Same read-out and setting: with B13 the figure was 0.058 µg/mL.
The same measure, in the same setting: then B9, with 0.0448 µg/mL; and B10, with 0.0258 µg/mL.
Still for that read-out and setting: with B11 the figure was 0.0276 µg/mL.
In turn, B14 yielded an EC50 of 0.0657 µg/mL.
The same measure, in the same setting: with B15 the figure was 3.85 µg/mL.

For another test, the target named is T4, human FXI in plasma (human, UniProt P03951). As to the kind of experiment: cell-based or functional assay.
B12: the “Activity (FXI), APTT, 1 µg/mL antibody” value worked out at 88% and the “Coagulation time (s), APTT, 1 µg/mL antibody” value (from here on “Coagulation time (s), APTT”) turned out to be 61 s.
B13: the “Activity (FXI), APTT, 1 µg/mL antibody” value came out at 80.7% and the “Coagulation time (s), APTT” value turned out to be 62.2 s.
Taken in the same sequence, the figures for B9 were 82.5% and 61.9 s.
B10: the “Activity (FXI), APTT, 1 µg/mL antibody” value stood at 83.7% and the “Coagulation time (s), APTT” value came out at 61.7 s.
Taken in the same sequence, the figures for B11 were 79% and 62.5 s.

A further test has as its target T5, RabFXI-Apple-CHis protein (New Zealand rabbit).
T5 construct: also called FXI proteins of New Zealand rabbits
The test can be described thus: BLI, antibody captured on sensor, antigen in solution.
As to B2, the Kd turned out to be 0.96 nM.
Molecule B3 returned a Kd of 287 nM.
Still for that read-out and setting: then B4, with 451 nM; and B5, with 31.5 nM; and B6, with 7.21 nM.

The target in another test is T3, hApple-chis. The description is as above.
As for B2, the Kd is less than 0.001 nM.
Same read-out and setting: then B1, with less than 0.001 nM.
The same measure, in the same setting: with B3 the figure was less than 0.001 nM; with B4, 0.00231 nM.
Still for that read-out and setting: with B5 the figure was 0.664 nM; with B6, 0.45 nM.
B7 returned a Kd of 0.487 nM.

For a further test, the target named is T4, human FXI in plasma. As to the kind of experiment: cell-based or functional assay. The source holds these as a separate data set.
As to B1, the “activity of FXI factor in human plasma at 0.1 µg/mL” value was 81.8%, the “activity of FXI factor in human plasma at 0.5 µg/mL” value is 58.4%, the “activity of FXI factor in human plasma at 1 µg/mL” value came to 33% and the “activity of FXI factor in human plasma at 5 µg/mL” value is 1.9%. The “activity of FXI factor in human plasma at 10 µg/mL” value came out at 1.9%.
Turning to B3, the “activity of FXI factor in human plasma at 0.1 µg/mL” value stood at 87.2%, the “activity of FXI factor in human plasma at 0.5 µg/mL” value worked out at 68.9%, the “activity of FXI factor in human plasma at 1 µg/mL” value amounted to 47.4% and the “activity of FXI factor in human plasma at 5 µg/mL” value was 7.5%. In addition, the “activity of FXI factor in human plasma at 10 µg/mL” value was 6.15%.
